In patent US7160888B2, “[1,8]naphthyridin-2-ones and related compounds for the treatment of schizophrenia” (Warner Lambert Company LLC, priority 2003, dated 2007) one finds Ki data, which are given here for 36 molecules.

The first assay deals with dopamine D2 receptor (Homo sapiens, UniProt P14416). Kind of assay: biochemical. Particulars: D2 Ki (nM), Table 1; 0.4 nM [3H]spiperone, CHO-hD2L membranes.
UniProt P14416, sequence (P14416 whole entry): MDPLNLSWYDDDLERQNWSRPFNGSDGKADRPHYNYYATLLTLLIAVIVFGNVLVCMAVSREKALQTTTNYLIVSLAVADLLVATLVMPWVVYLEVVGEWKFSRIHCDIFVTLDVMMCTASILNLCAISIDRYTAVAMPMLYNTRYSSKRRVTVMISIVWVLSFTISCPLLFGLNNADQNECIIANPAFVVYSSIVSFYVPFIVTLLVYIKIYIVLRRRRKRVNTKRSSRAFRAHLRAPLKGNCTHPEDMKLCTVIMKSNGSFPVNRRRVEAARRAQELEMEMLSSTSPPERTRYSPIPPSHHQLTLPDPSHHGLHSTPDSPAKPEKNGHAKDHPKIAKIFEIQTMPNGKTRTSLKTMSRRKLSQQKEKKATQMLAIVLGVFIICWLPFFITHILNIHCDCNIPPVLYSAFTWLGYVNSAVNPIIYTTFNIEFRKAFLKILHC
Consider `O=C1NCc2ccc(OCCCCN3CCN(c4cccc5c4CCC5)CC3)nc2N1` [Example F3, 7-[4-(4-Indan-4-yl-piperazin-1-yl)-butoxy]-3,4-dihydro-1H-pyrido[2,3-d]pyrimidin-2-one], for which the inhibitory constant (Ki) (usually the equilibrium dissociation constant of an inhibitor or competing ligand from its target) was 0.8 nM.
In the case of `O=C1NCc2ccc(OCCCCN3CCN(c4cccc5c4CCCC5)CC3)nc2N1` [Example F4, 7-{4-[4-(5,6,7,8-Tetrahydro-naphthalen-1-yl)-piperazin-1-yl]-butoxy}-3,4-dihydro-1H-pyrido[2,3-d]pyrimidin-2-one], the Ki came to 1.4 nM.
Regarding `O=C1NCc2ccc(OCCCCN3CCN(c4cccc5ccc(F)cc45)CC3)nc2N1` [Example F5, 7-{4-[4-(7-Fluoro-naphthalen-1-yl)-piperazin-1-yl]-butoxy}-3,4-dihydro-1H-pyrido[2,3-d]pyrimidin-2-one], the affinity, expressed as Ki, was 1 nM.
Same read-out and setting: for `N#Cc1ccc2cccc(N3CCN(CCCCOc4ccc5c(n4)NC(=O)NC5)CC3)c2c1` [Example F6, 8-{4-[4-(2-Oxo-1,2,3,4-tetrahydro-pyrido[2,3-d]pyrimidin-7-yloxy)-butyl]-piperazin-1-yl}-naphthalene-2-carbonitrile] the value was 0.6 nM.
Same read-out and setting: for `CN1Cc2ccc(OCCCCN3CCN(c4cccc(Cl)c4Cl)CC3)nc2NC1=O` [Example F7, 7-{4-[4-(2,3-Dichloro-phenyl)-piperazin-1-yl]-butoxy}-3-methyl-3,4-dihydro-1H-pyrido[2,3-d]pyrimidin-2-one] the value was 0.5 nM; for `CN1Cc2ccc(OCCCCN3CCN(c4cccc5ccccc45)CC3)nc2NC1=O` [Example F8, 3-Methyl-7-[4-(4-naphthalen-1-yl-piperazin-1-yl)-butoxy]-3,4-dihydro-1H-pyrido[2,3-d]pyrimidin-2-one], 1 nM.
As for `CC1(C)OC(=O)Nc2nc(CCCCCN3CCN(c4cccc(Cl)c4Cl)CC3)ccc21` [Example F9, 7-{5-[4-(2,3-Dichloro-phenyl)-piperazin-1-yl]-pentyl}-4,4-dimethyl-1,4-dihydro-pyrido[2,3-d][1,3]oxazin-2-one], the inhibition constant (Ki) is 3.9 nM.
Same read-out and setting: in the case of `O=C1COc2ccc(CCCCCN3CCN(c4cccc(Cl)c4Cl)CC3)nc2N1` [Example G1, 6-{5-[4-(2,3-Dichloro-phenyl)-piperazin-1-yl]-pentyl}-4H-pyrido[3,2-b][1,4]oxazin-3-one] it was 7.5 nM; in that of `O=C1COc2ccc(CCCCCN3CCN(c4cccc5c4CCCC5)CC3)nc2N1` [Example G2, 6-{5-[4-(5,6,7,8-Tetrahydro-naphthalen-1-yl)-piperazin-1-yl]-pentyl}-4H-pyrido[3,2-b][1,4]oxazin-3-one], 3.9 nM.
Same read-out and setting: in the case of `O=C1COc2ccc(OCCCCN3CCN(c4cccc(Cl)c4Cl)CC3)nc2N1` [Example G3, 6-{4-[4-(2,3-Dichloro-phenyl)-piperazin-1-yl]-butoxy}-4H-pyrido[3,2-b][1,4]oxazin-3-one] it was 1.4 nM.
Still for that read-out and setting: for `O=C1COc2ccc(OCCCCN3CCN(c4cccc5c4CCC5)CC3)nc2N1` [Example G4, 6-[4-(4-Indan-4-yl-piperazin-1-yl)-butoxy]-4H-pyrido[3,2-b][1,4]oxazin-3-one] the value was 0.7 nM; for `O=C1COc2ccc(OCCCCN3CCN(c4cccc5ccccc45)CC3)nc2N1` [Example G5, 6-[4-(4-Naphthalen-1-yl-piperazin-1-yl)-butoxy]-4H-pyrido[3,2-b][1,4]oxazin-3-one], 0.6 nM.
In turn, `COc1cccc(N2CCN(CCCCOc3ccc4c(n3)NC(=O)CO4)CC2)n1` [Example G6, 6-{4-[4-(6-Methoxy-pyridin-2-yl)-piperazin-1-yl]-butoxy}-4H-pyrido[3,2-b][1,4]oxazin-3-one] had an inhibitory constant (Ki) of 66.7 nM. This Ki is about 110-fold higher than that of the molecule before.
`O=C1COc2ccc(OCCCCN3CCN(c4cccc5ccc(F)cc45)CC3)nc2N1` [Example G7, 6-{4-[4-(7-Fluoro-naphthalen-1-yl)-piperazin-1-yl]-butoxy}-4H-pyrido[3,2-b][1,4]oxazin-3-one]: the affinity, expressed as Ki, was 0.8 nM.
Same read-out and setting: in the case of `CC(C)Oc1ccccc1N1CCN(CCCCOc2ncc3ccc(=O)[nH]c3n2)CC1` [Example H2, 2-{4-[4-(2-Isopropoxy-phenyl)-piperazin-1-yl]-butoxy}-8H-pyrido[2,3-d]pyrimidin-7-one] it was 1 nM; in that of `O=c1ccc2cnc(OCCCCN3CCN(c4cccc5c4CCC5)CC3)nc2[nH]1` [Example H3, 2-[4-(4-Indan-4-yl-piperazin-1-yl)-butoxy]-8H-pyrido[2,3-d]pyrimidin-7-one], 1.8 nM.

Staying with this assay, now noted: D2 Ki (nM), Table 2; 0.4 nM [3H]spiperone, CHO-hD2L membranes.
`O=C1COc2ccc(OCCCCN3CCN(c4cccc5c4NC(=O)CC5)CC3)nc2N1` [Example F3′, 6-{4-[4-(2-Oxo-1,23,4-tetrahydro-quinolin-8-yl)-piperazin-1-yl]-butoxy}-4H-pyrido[3,2-b][1,4]oxazin-3-one] returned a Ki of 10.1 nM.
On the same count and under the same terms, in the case of `O=C1COc2ccc(OCCCCN3CCN(c4cccc5c4OCCC5)CC3)nc2N1` [Example F4′, 6-[4-(4-Chroman-8-yl-piperazin-1-yl)-butoxy]-4H-pyrido[3,2-b][1,4]oxazin-3-one] it was 1 nM.
Still for that read-out and setting: for `O=C1COc2ccc(OCCCCN3CCN(c4cccc5c4OCCO5)CC3)nc2N1` [Example F5′, 6-{4-[4-(2,3-Dihydro-benzo[1,4]dioxin-5-yl)-piperazin-1-yl]-butoxy}-4H-pyrido[3,2-b][1,4]oxazin-3-one] the value was 0.8 nM.
`O=c1ccc2cnc(OCCCCN3CCN(c4cccc5c4OCCO5)CC3)nc2[nH]1` [Example G1′, 2-{4-[4-(2,3-Dihydro-benzo[1,4]dioxin-5-yl)-piperazin-1-yl]-butoxy}-8H-pyrido[2,3-d]pyrimidin-7-one]: the affinity corresponds to a Ki of 10 nM. Compared with the last molecule, the Ki is about 12-fold higher.
Still for that read-out and setting: for `O=c1ccc2cnc(OCCCCN3CCN(c4cccc5c4OCCC5)CC3)nc2[nH]1` [Example G2′, 2-[4-(4-Chroman-8-yl-piperazin-1-yl)-butoxy]-8H-pyrido[2,3-d]pyrimidin-7-one] the value was 3.5 nM; for `O=c1ccc2cnc(OCCCCN3CCN(c4cccc5cccnc45)CC3)nc2[nH]1` [Example G3′, 2-[4-(4-Quinolin-8-yl-piperazin-1-yl)-butoxy]-8H-pyrido[2,3-d]pyrimidin-7-one], 17.6 nM; for `O=c1ccc2cnc(OCCCCN3CCN(c4cccc5c4OCC5)CC3)nc2[nH]1` [Example G4′, 2-{4-[4-(2,3-Dihydro-benzofuran-7-yl)-piperazin-1-yl]-butoxy}-8H-pyrido[2,3-d]pyrimidin-7-one], 9 nM.
Still for that read-out and setting: in the case of `O=c1ccc2cnc(OCCCCN3CCN(c4cccc5c4OCCCO5)CC3)nc2[nH]1` [Example G5′, 2-{4-[4-(3,4-Dihydro-2H-benzo[b][1,4]dioxepin-6-yl)-piperazin-1-yl]-butoxy}-8H-pyrido[2,3-d]pyrimidin-7-one] it was 8.5 nM; in that of `CC1(C)CCc2cccc(N3CCN(CCCCOc4ncc5ccc(=O)[nH]c5n4)CC3)c2O1` [Example G6′, 2-{4-[4-(2,2-Dimethyl-chroman-8-yl)-piperazin-1-yl]-butoxy}-8H-pyrido[2,3-d]pyrimidin-7-one], 0.7 nM; in that of `O=c1ccc2cnc(OCCCCN3CCN(c4cccc5c4OC(F)(F)O5)CC3)nc2[nH]1` [Example G7′, 2-{4-[4-(2,2-Difluoro-benzo[1,3]dioxol-4-yl)-piperazin-1-yl]-butoxy}-8H-pyrido[2,3-d]pyrimidin-7-one], 1.4 nM.
Still for that read-out and setting: for `CC1(C)Cc2cccc(N3CCN(CCCCOc4ncc5ccc(=O)[nH]c5n4)CC3)c2O1` [Example G8′, 2-{4-[4-(2,2-Dimethyl-2,3-dihydro-benzofuran-7-yl)-piperazin-1-yl]-butoxy}-8H-pyrido[2,3-d]pyrimidin-7-one] the value was 2.5 nM; for `Cc1ccc2cccc(N3CCN(CCCCOc4ncc5ccc(=O)[nH]c5n4)CC3)c2n1` [Example G9′, 2-{4-[4-(2-Methyl-quinolin-8-yl)-piperazin-1-yl]-butoxy}-8H-pyrido[2,3-d]pyrimidin-7-one], 5.5 nM.
For `Cc1nc(OCCCCN2CCN(c3cccc4c3OCCO4)CC2)nc2[nH]c(=O)ccc12` [Example G10′, 2-{4-[4-(2,3-Dihydro-benzo[1,4]dioxin-5-yl)-piperazin-1-yl]-butoxy}-4-methyl-8H-pyrido[2,3-d]pyrimidin-7-one], the inhibition constant Ki turned out to be 1 nM.
The same measure, in the same setting: for `Cc1nc(OCCCCN2CCN(c3cccc4c3OCC4)CC2)nc2[nH]c(=O)ccc12` [Example G11′, 2-{4-[4-(2,3-Dihydro-benzofuran-7-yl)-piperazin-1-yl]-butoxy}-4-methyl-8H-pyrido[2,3-d]pyrimidin-7-one] the value was 2 nM.
On the same count and under the same terms, for `Cc1nc(OCCCCN2CCN(c3cccc4ccoc34)CC2)nc2[nH]c(=O)ccc12` [Example G12′, 2-[4-(4-Benzofuran-7-yl-piperazin-1-yl)-butoxy]-4-methyl-8H-pyrido[2,3-d]pyrimidin-7-one] the value was 3 nM.
On the same count and under the same terms, for `Cc1nc(OCCCCN2CCN(c3cccc4c3OCCC4)CC2)nc2[nH]c(=O)ccc12` [Example G13′, 2-[4-(4-Chroman-8-yl-piperazin-1-yl)-butoxy]-4-methyl-8H-pyrido[2,3-d]pyrimidin-7-one] the value was 2.5 nM; for `Cc1nc(OCCCCN2CCN(c3cccc4c3NC(=O)CC4)CC2)nc2[nH]c(=O)ccc12` [Example G14′, 4-Methyl-2-{4-[4-(2-oxo-1,2,3,4-tetrahydro-quinolin-8-yl)-piperazin-1-yl]-butoxy}-8H-pyrido[2,3-d]pyrimidin-7-one], 15 nM.
In turn, `Cc1nc(OCCCCN2CCN(c3cccc4cccnc34)CC2)nc2[nH]c(=O)ccc12` [Example G15′, 4-Methyl-2-[4-(4-quinolin-8-yl-piperazin-1-yl)-butoxy]-8H-pyrido[2,3-d]pyrimidin-7-one] had a Ki of 3.4 nM. Compared with the last molecule, the Ki is about 4.4-fold lower.
The same measure, in the same setting: for `O=C1CCc2cnc(OCCCCN3CCN(c4cccc5c4OCCC5)CC3)cc2N1` [Example H1′, 7-[4-(4-Chroman-8-yl-piperazin-1-yl)-butoxy]-3,4-dihydro-1H-[1,6]naphthyridin-2-one] the value was 4.9 nM; for `O=C1CCc2cnc(OCCCCN3CCN(c4cccc5c4OCC5)CC3)cc2N1` [Example H2′, 7-{4-[4-(2,3-Dihydro-benzofuran-7-yl)-piperazin-1-yl]-butoxy}-3,4-dihydro-1H-[1,6]naphthyridin-2-one], 6.9 nM.
